Test results reported in the supplement of paper PMC8728848.
The list shows a part of the results.

What was measured:
Assay in all cases: glycan array binding signal (z-score within array); higher = stronger binding
Details in all cases: glycan notation: IUPAC condensed, linker removed
[1] = molecular target: Neu5Ac(a2-3)GalNAc
Method in brief: (§1)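 The binding signal is a Z-score computed within each array and averaged over linkers. Arrays of the same protein sequence at different concentrations or buffers were also averaged together. Data originate from 3228 arrays in the Consortium for Functional Glycomics database, kept only where the protein sequence was available.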

[2] = molecular target: Neu5Ac(a2-3)GalNAc(b1-4)GlcNAc
Method in brief: as §1

[3] = molecular target: Neu5Ac(a2-3)[GalNAc(b1-4)]Gal(b1-4)Glc
Method in brief: as §1

[4] = molecular target: Neu5Ac(a2-3)[GalNAc(b1-4)]Gal(b1-4)GlcNAc
Method in brief: as §1

[5] = molecular target: Neu5Ac(a2-3)[GalNAc(b1-4)]Gal(b1-4)GlcNAc(b1-3)GalNAc
Method in brief: as §1

[6] = molecular target: Neu5Ac(a2-3)[Neu5Ac(a2-6)]GalNAc
Method in brief: as §1

[7] = molecular target: Neu5Ac(a2-6)Gal
Method in brief: as §1

[8] = molecular target: Neu5Ac(a2-6)Gal(b1-3)GlcNAc(b1-3)[Gal(b1-4)GlcNAc(b1-6)]Gal(b1-4)Glc
Method in brief: as §1

[9] = molecular target: Neu5Ac(a2-6)Gal(b1-4)Glc
Method in brief: as §1

[10] = molecular target: Neu5Ac(a2-6)Gal(b1-4)GlcNAc
Method in brief: as §1

[11] = molecular target: Neu5Ac(a2-6)Gal(b1-4)GlcNAc(b1-2)Man
Method in brief: as §1

[12] = molecular target: Neu5Ac(a2-6)Gal(b1-4)GlcNAc(b1-2)Man(a1-3)Man(b1-4)GlcNAc(b1-4)GlcNAc
Method in brief: as §1

[13] = molecular target: Neu5Ac(a2-6)Gal(b1-4)GlcNAc(b1-2)Man(a1-3)[Gal(b1-4)GlcNAc(b1-2)Man(a1-6)]Man(b1-4)GlcNAc(b1-4)GlcNAc
Method in brief: as §1

[14] = molecular target: Neu5Ac(a2-6)Gal(b1-4)GlcNAc(b1-2)Man(a1-3)[GlcNAc(b1-2)Man(a1-6)]Man(b1-4)GlcNAc(b1-4)GlcNAc
Method in brief: as §1

[15] = molecular target: Neu5Ac(a2-6)Gal(b1-4)GlcNAc(b1-2)Man(a1-3)[GlcNAc(b1-4)][Neu5Ac(a2-6)Gal(b1-4)GlcNAc(b1-2)Man(a1-6)]Man(b1-4)GlcNAc(b1-4)GlcNAc
Method in brief: as §1

[16] = molecular target: Neu5Ac(a2-6)Gal(b1-4)GlcNAc(b1-2)Man(a1-3)[Man(a1-6)]Man(b1-4)GlcNAc(b1-4)GlcNAc
Method in brief: as §1

[17] = molecular target: Neu5Ac(a2-6)Gal(b1-4)GlcNAc(b1-2)Man(a1-3)[Neu5Ac(a2-3)Gal(b1-4)GlcNAc(b1-2)Man(a1-6)]Man(b1-4)GlcNAc(b1-4)GlcNAc
Method in brief: as §1

[18] = molecular target: Neu5Ac(a2-6)Gal(b1-4)GlcNAc(b1-2)Man(a1-3)[Neu5Ac(a2-6)Gal(b1-4)GlcNAc(b1-2)Man(a1-6)]Man(b1-4)GlcNAc(b1-4)GlcNAc
Method in brief: as §1

[19] = molecular target: Neu5Ac(a2-6)Gal(b1-4)GlcNAc(b1-2)Man(a1-3)[Neu5Ac(a2-6)Gal(b1-4)GlcNAc(b1-2)Man(a1-6)]Man(b1-4)GlcNAc(b1-4)[Fuc(a1-6)]GlcNAc
Method in brief: as §1

[20] = molecular target: Neu5Ac(a2-6)Gal(b1-4)GlcNAc(b1-2)Man(a1-6)Man(b1-4)GlcNAc(b1-4)GlcNAc
Method in brief: as §1

[21] = molecular target: Neu5Ac(a2-6)Gal(b1-4)GlcNAc(b1-2)Man(a1-6)[Gal(b1-4)GlcNAc(b1-2)Man(a1-3)]Man(b1-4)GlcNAc(b1-4)GlcNAc
Method in brief: as §1

[22] = molecular target: Neu5Ac(a2-6)Gal(b1-4)GlcNAc(b1-2)Man(a1-6)[GlcNAc(b1-2)Man(a1-3)]Man(b1-4)GlcNAc(b1-4)GlcNAc
Method in brief: as §1

[23] = molecular target: Neu5Ac(a2-6)Gal(b1-4)GlcNAc(b1-2)Man(a1-6)[Man(a1-3)]Man(b1-4)GlcNAc(b1-4)GlcNAc
Method in brief: as §1

[24] = molecular target: Neu5Ac(a2-6)Gal(b1-4)GlcNAc(b1-2)[Neu5Ac(a2-6)Gal(b1-4)GlcNAc(b1-4)]Man(a1-3)[GlcNAc(b1-4)][Neu5Ac(a2-6)Gal(b1-4)GlcNAc(b1-2)[Neu5Ac(a2-6)Gal(b1-4)GlcNAc(b1-6)]Man(a1-6)]Man(b1-4)GlcNAc(b1-4)GlcNAc
Method in brief: as §1

[25] = molecular target: Neu5Ac(a2-6)Gal(b1-4)GlcNAc(b1-2)[Neu5Ac(a2-6)Gal(b1-4)GlcNAc(b1-4)]Man(a1-3)[GlcNAc(b1-4)][Neu5Ac(a2-6)Gal(b1-4)GlcNAc(b1-4)Man(a1-6)]Man(b1-4)GlcNAc(b1-4)GlcNAc
Method in brief: as §1

[26] = molecular target: Neu5Ac(a2-6)Gal(b1-4)GlcNAc(b1-2)[Neu5Ac(a2-6)Gal(b1-4)GlcNAc(b1-6)]Man(a1-6)[Neu5Ac(a2-6)Gal(b1-4)GlcNAc(b1-2)Man(a1-3)][GlcNAc(b1-4)]Man(b1-4)GlcNAc(b1-4)GlcNAc
Method in brief: as §1

[27] = molecular target: Neu5Ac(a2-6)Gal(b1-4)GlcNAc(b1-3)Gal(b1-3)GlcNAc
Method in brief: as §1

[28] = molecular target: Neu5Ac(a2-6)Gal(b1-4)GlcNAc(b1-3)Gal(b1-4)GlcNAc
Method in brief: as §1

[29] = molecular target: Neu5Ac(a2-6)Gal(b1-4)GlcNAc(b1-3)Gal(b1-4)GlcNAc(b1-2)Man(a1-3)[Neu5Ac(a2-6)Gal(b1-4)GlcNAc(b1-3)Gal(b1-4)GlcNAc(b1-2)Man(a1-6)]GalNAc
Method in brief: as §1

[30] = molecular target: Neu5Ac(a2-6)Gal(b1-4)GlcNAc(b1-3)Gal(b1-4)GlcNAc(b1-3)Gal(b1-4)GlcNAc
Method in brief: as §1

[31] = molecular target: Neu5Ac(a2-6)Gal(b1-4)GlcNAc(b1-3)Gal(b1-4)GlcNAc(b1-3)Gal(b1-4)GlcNAc(b1-2)Man(a1-3)[Neu5Ac(a2-6)Gal(b1-4)GlcNAc(b1-3)Gal(b1-4)GlcNAc(b1-3)Gal(b1-4)GlcNAc(b1-2)Man(a1-6)]GalNAc
Method in brief: as §1

[32] = molecular target: Neu5Ac(a2-6)Gal(b1-4)GlcNAc(b1-3)Gal(b1-4)GlcNAc(b1-3)GalNAc
Method in brief: as §1

[33] = molecular target: Neu5Ac(a2-6)Gal(b1-4)GlcNAc(b1-3)Gal(b1-4)GlcNAc(b1-3)[Neu5Ac(a2-6)Gal(b1-4)GlcNAc(b1-3)Gal(b1-4)GlcNAc(b1-6)]GalNAc
Method in brief: as §1

[34] = molecular target: Neu5Ac(a2-6)Gal(b1-4)GlcNAc(b1-3)Gal(b1-4)GlcNAc(b1-6)[Gal(b1-3)]GalNAc
Method in brief: as §1

[35] = molecular target: Neu5Ac(a2-6)Gal(b1-4)GlcNAc(b1-3)Gal(b1-4)[Fuc(a1-3)]GlcNAc(b1-3)Gal(b1-4)[Fuc(a1-3)]GlcNAc
Method in brief: as §1

[36] = molecular target: Neu5Ac(a2-6)Gal(b1-4)GlcNAc(b1-3)GalNAc
Method in brief: as §1

[37] = molecular target: Neu5Ac(a2-6)Gal(b1-4)GlcNAc(b1-3)[Neu5Ac(a2-6)Gal(b1-4)GlcNAc(b1-6)]GalNAc
Method in brief: as §1

[38] = molecular target: Neu5Ac(a2-6)Gal(b1-4)GlcNAc(b1-6)GalNAc
Method in brief: as §1

[39] = molecular target: Neu5Ac(a2-6)Gal(b1-4)GlcNAc(b1-6)[Gal(b1-3)GlcNAc(b1-3)]Gal(b1-4)Glc
Method in brief: as §1

[40] = molecular target: Neu5Ac(a2-6)Gal(b1-4)GlcNAc(b1-6)[Gal(b1-3)]GalNAc
Method in brief: as §1

[41] = molecular target: Neu5Ac(a2-6)Gal(b1-4)GlcNAc6S
Method in brief: as §1

[42] = molecular target: Neu5Ac(a2-6)GalNAc
Method in brief: as §1

[43] = molecular target: Neu5Ac(a2-6)GalNAc(b1-4)GlcNAc
Method in brief: as §1

[44] = molecular target: Neu5Ac(a2-6)GalNAc(b1-4)GlcNAc6S
Method in brief: as §1

[45] = molecular target: Neu5Ac(a2-6)GlcNAc(b1-4)GlcNAc
Method in brief: as §1

B1: Microvirin-2 (Microcystis aeruginosa) (protein)
chain: MPNFSHTCSSINYDPDSTILSAECQARDGEWLPTELRLSDHIGNIDGELQFGDQNFQETCQDCHLEFGDGEQSVWLVCTCQTMDGEWKSTQILLDSQIDNNDSQLEIGGSMPNFSHTCSSINYDPDSTILSAECQARDGEWLPTELRLSDHIGNIDGELQFGDQNFQETCQDCHLEFGDGEQSVWLVCTCQTMDGEWKSTQILLDSQIDNNDSQLEIG
- glycan array binding signal (z-score) [1]: -0.136
- glycan array binding signal (z-score) [2]: -0.143
- glycan array binding signal (z-score) [3]: -0.144
- glycan array binding signal (z-score) [4]: -0.137
- glycan array binding signal (z-score) [5]: -0.077
- glycan array binding signal (z-score) [6]: -0.14
- glycan array binding signal (z-score) [7]: -0.138
- glycan array binding signal (z-score) [8]: -0.144
- glycan array binding signal (z-score) [9]: -0.13
- glycan array binding signal (z-score) [10]: -0.136
- glycan array binding signal (z-score) [11]: -0.131
- glycan array binding signal (z-score) [12]: -0.138
- glycan array binding signal (z-score) [13]: -0.142
- glycan array binding signal (z-score) [14]: -0.145
- glycan array binding signal (z-score) [15]: -0.142
- glycan array binding signal (z-score) [16]: -0.135
- glycan array binding signal (z-score) [17]: -0.138
- glycan array binding signal (z-score) [18]: -0.131
- glycan array binding signal (z-score) [19]: -0.124
- glycan array binding signal (z-score) [20]: -0.129
- glycan array binding signal (z-score) [21]: -0.14
- glycan array binding signal (z-score) [22]: -0.123
- glycan array binding signal (z-score) [23]: -0.143
- glycan array binding signal (z-score) [24]: -0.133
- glycan array binding signal (z-score) [25]: -0.126
- glycan array binding signal (z-score) [26]: -0.144
- glycan array binding signal (z-score) [27]: -0.123
- glycan array binding signal (z-score) [28]: -0.137
- glycan array binding signal (z-score) [29]: -0.068
- glycan array binding signal (z-score) [30]: -0.142
- glycan array binding signal (z-score) [31]: 0.076
- glycan array binding signal (z-score) [32]: -0.13
- glycan array binding signal (z-score) [33]: 0.02
- glycan array binding signal (z-score) [34]: -0.123
- glycan array binding signal (z-score) [35]: -0.094
- glycan array binding signal (z-score) [36]: -0.123
- glycan array binding signal (z-score) [37]: -0.138
- glycan array binding signal (z-score) [38]: -0.072
- glycan array binding signal (z-score) [39]: -0.121
- glycan array binding signal (z-score) [40]: -0.107
- glycan array binding signal (z-score) [41]: -0.142
- glycan array binding signal (z-score) [42]: -0.133
- glycan array binding signal (z-score) [43]: -0.136
- glycan array binding signal (z-score) [44]: -0.141
- glycan array binding signal (z-score) [45]: -0.135
